Experimental data from the supplement of paper PMC12067230.
This is a noisy data set.

test: amyloid nucleation score relative to library mode (yeast Sup35 reporter selection) (log enrichment difference); higher = more amyloid nucleation; sequences are the first 22 residues of the Bri2 peptide extended by up to 12 random residues; settings: random library (experiment): 1;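 active = nucleation score significantly above 0 at FDR 0.05; inactive = not significantly above 0 or absent from output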
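Also: [psi-pin-] Saccharomyces cerevisiae expressing SupN fusions, induced by 100 µM Cu2SO4, selected 7 d at 30 °C without adenine and uracil, scored by deep sequencing of output versus input.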

Sequence | amyloid nucleation score
EASNCFAIRHFENKFAVETLICNRLIDRNDYDVQ | inactive
EASNCFAIRHFENKFAVETLICNRLLSWTSTSAL | inactive
EASNCFAIRHFENKFAVETLICNRPIKCMGCWGG | inactive
EASNCFAIRHFENKFAVETLICNRRGLRITGRDE | inactive
EASNCFAIRHFENKFAVETLICNRRRRQSAGTCK | inactive
EASNCFAIRHFENKFAVETLICNRTS | 0.887
EASNCFAIRHFENKFAVETLICNRVLVYLRPCWA | inactive
EASNCFAIRHFENKFAVETLICNSAQ | inactive
EASNCFAIRHFENKFAVETLICNSCTLRT | inactive
EASNCFAIRHFENKFAVETLICNSEIMCRDTLRW | 5.45
EASNCFAIRHFENKFAVETLICNSGSVG | inactive
EASNCFAIRHFENKFAVETLICNSKWLEFVRMGG | inactive
EASNCFAIRHFENKFAVETLICNSM | 2.13
EASNCFAIRHFENKFAVETLICNSMDMGRNSCAF | 1.94
EASNCFAIRHFENKFAVETLICNSMFVLVEVFSA | -0.0194
EASNCFAIRHFENKFAVETLICNSMSMDQEWSSR | 2.18
EASNCFAIRHFENKFAVETLICNSRDVRNEWAGS | -0.9
EASNCFAIRHFENKFAVETLICNSRNWYTRIGW | 0.627

Sequence | amyloid nucleation score
EASNCFAIRHFENKFAVETLICNSRRPFILLELM | inactive
EASNCFAIRHFENKFAVETLICNSSYGRAGSV | -0.0385
EASNCFAIRHFENKFAVETLICNSTRPTQPIPLA | inactive
EASNCFAIRHFENKFAVETLICNSTWMRNSEFYG | inactive
EASNCFAIRHFENKFAVETLICNSVE | inactive
EASNCFAIRHFENKFAVETLICNSVTTFSAISWT | 3.47
EASNCFAIRHFENKFAVETLICNSVVGYFGTVAH | 7.68
EASNCFAIRHFENKFAVETLICNTARRCSAVSSV | inactive
EASNCFAIRHFENKFAVETLICNTLCIGDPSCLR | 7.73
EASNCFAIRHFENKFAVETLICNTMGYLYNACLM | inactive
EASNCFAIRHFENKFAVETLICNTMVTKYHRIVS | inactive
EASNCFAIRHFENKFAVETLICNTRMRTGVGTAR | inactive
EASNCFAIRHFENKFAVETLICNTSCCELGSFP | 6.43
EASNCFAIRHFENKFAVETLICNTSYWCDVESCR | inactive
EASNCFAIRHFENKFAVETLICNTVLKYGSGVLV | inactive
EASNCFAIRHFENKFAVETLICNTWDSV | inactive
EASNCFAIRHFENKFAVETLICNTWSRMRVGLKR | inactive
EASNCFAIRHFENKFAVETLICNTWWL | 5.09

same assay, conditions: random library (experiment): 2

Sequence | amyloid nucleation score
EASNCFAIRHFENKFAVETLICNRLIYRTMRVFY | -0.153
EASNCFAIRHFENKFAVETLICNRLVIESVVVDG | -0.262
EASNCFAIRHFENKFAVETLICNRLYFYPYNWFS | inactive
EASNCFAIRHFENKFAVETLICNRMVPFCNVRNP | inactive
EASNCFAIRHFENKFAVETLICNRNLNGRTLCVR | inactive
EASNCFAIRHFENKFAVETLICNRQGNQEDTGSN | inactive
EASNCFAIRHFENKFAVETLICNRSRQGPSSGVW | 1.7
EASNCFAIRHFENKFAVETLICNRTSAEDTWGPS | inactive
EASNCFAIRHFENKFAVETLICNRVTSWGRLGSS | 2.78
EASNCFAIRHFENKFAVETLICNRVTVKCVNFWT | 1.36
EASNCFAIRHFENKFAVETLICNRWESHASFIWA | inactive
EASNCFAIRHFENKFAVETLICNSCLAMLFISND | 4.55
EASNCFAIRHFENKFAVETLICNSCS | inactive
EASNCFAIRHFENKFAVETLICNSFRL | 4.68
EASNCFAIRHFENKFAVETLICNSLSCYVHTFYK | 6.18
EASNCFAIRHFENKFAVETLICNSMFGKLSLLTW | inactive

Sequence | amyloid nucleation score
EASNCFAIRHFENKFAVETLICNSNKYCEFLRIG | inactive
EASNCFAIRHFENKFAVETLICNSQW | inactive
EASNCFAIRHFENKFAVETLICNSSDGPLCLHFT | 5.21
EASNCFAIRHFENKFAVETLICNSSIAKTVYVVW | inactive
EASNCFAIRHFENKFAVETLICNSTCH | inactive
EASNCFAIRHFENKFAVETLICNSTIRSC | inactive
EASNCFAIRHFENKFAVETLICNSYGI | 5.65
EASNCFAIRHFENKFAVETLICNTCKLLLKRSLS | inactive
EASNCFAIRHFENKFAVETLICNTFKSHNMVLWK | 0.575
EASNCFAIRHFENKFAVETLICNTITSQTLELRL | 6.07
EASNCFAIRHFENKFAVETLICNTKPVYVVINRK | 8.22
EASNCFAIRHFENKFAVETLICNTL | inactive
EASNCFAIRHFENKFAVETLICNTLSTHSLAWSG | inactive
EASNCFAIRHFENKFAVETLICNTRRHKDWSCVG | inactive
EASNCFAIRHFENKFAVETLICNTSNIVCAEDHR | 4.88
EASNCFAIRHFENKFAVETLICNTVS | inactive

same assay, conditions: random library (experiment): 3

Sequence | amyloid nucleation score
EASNCFAIRHFENKFAVETLICNRLLSSLVVARH | inactive
EASNCFAIRHFENKFAVETLICNRLVINCILTQP | 4.04
EASNCFAIRHFENKFAVETLICNRRY | inactive
EASNCFAIRHFENKFAVETLICNRTNSFMRVESG | inactive
EASNCFAIRHFENKFAVETLICNRVGRGRVPGGK | inactive
EASNCFAIRHFENKFAVETLICNRVYQWILGCHR | inactive
EASNCFAIRHFENKFAVETLICNSARLLRTSWLL | 5.8
EASNCFAIRHFENKFAVETLICNSGGLLCLSSKR | 7.64
EASNCFAIRHFENKFAVETLICNSGPYAAVETWQ | inactive
EASNCFAIRHFENKFAVETLICNSLENWSQVVCS | inactive
EASNCFAIRHFENKFAVETLICNSLFLLYNGPGR | 6.33
EASNCFAIRHFENKFAVETLICNSLSLATETVVK | 0.778
EASNCFAIRHFENKFAVETLICNSMSADVGEPTV | -0.767
EASNCFAIRHFENKFAVETLICNSNIVEYYCHIW | 4.7
EASNCFAIRHFENKFAVETLICNSPGYGMYDGTT | inactive
EASNCFAIRHFENKFAVETLICNSSGSSTNRYWS | inactive
EASNCFAIRHFENKFAVETLICNSVEKTVGNGRE | inactive
EASNCFAIRHFENKFAVETLICNTNGRGVVGGQN | 0.758
